Assay results from article PMC4336329 (PLoS ONE, 2015).
Out of some 310,000 compounds screened, about 2,200 (0.71%) showed an effect of 50% or more. The effect is printed as a negative number. This is one part of the list.

molecular target: human ether-à-go-go-related gene (hERG) potassium channel (human, UniProt Q12809); assay: primary screen, population patch clamp on CHO cells stably expressing hERG
Sequence (Q12809 whole entry, looked up): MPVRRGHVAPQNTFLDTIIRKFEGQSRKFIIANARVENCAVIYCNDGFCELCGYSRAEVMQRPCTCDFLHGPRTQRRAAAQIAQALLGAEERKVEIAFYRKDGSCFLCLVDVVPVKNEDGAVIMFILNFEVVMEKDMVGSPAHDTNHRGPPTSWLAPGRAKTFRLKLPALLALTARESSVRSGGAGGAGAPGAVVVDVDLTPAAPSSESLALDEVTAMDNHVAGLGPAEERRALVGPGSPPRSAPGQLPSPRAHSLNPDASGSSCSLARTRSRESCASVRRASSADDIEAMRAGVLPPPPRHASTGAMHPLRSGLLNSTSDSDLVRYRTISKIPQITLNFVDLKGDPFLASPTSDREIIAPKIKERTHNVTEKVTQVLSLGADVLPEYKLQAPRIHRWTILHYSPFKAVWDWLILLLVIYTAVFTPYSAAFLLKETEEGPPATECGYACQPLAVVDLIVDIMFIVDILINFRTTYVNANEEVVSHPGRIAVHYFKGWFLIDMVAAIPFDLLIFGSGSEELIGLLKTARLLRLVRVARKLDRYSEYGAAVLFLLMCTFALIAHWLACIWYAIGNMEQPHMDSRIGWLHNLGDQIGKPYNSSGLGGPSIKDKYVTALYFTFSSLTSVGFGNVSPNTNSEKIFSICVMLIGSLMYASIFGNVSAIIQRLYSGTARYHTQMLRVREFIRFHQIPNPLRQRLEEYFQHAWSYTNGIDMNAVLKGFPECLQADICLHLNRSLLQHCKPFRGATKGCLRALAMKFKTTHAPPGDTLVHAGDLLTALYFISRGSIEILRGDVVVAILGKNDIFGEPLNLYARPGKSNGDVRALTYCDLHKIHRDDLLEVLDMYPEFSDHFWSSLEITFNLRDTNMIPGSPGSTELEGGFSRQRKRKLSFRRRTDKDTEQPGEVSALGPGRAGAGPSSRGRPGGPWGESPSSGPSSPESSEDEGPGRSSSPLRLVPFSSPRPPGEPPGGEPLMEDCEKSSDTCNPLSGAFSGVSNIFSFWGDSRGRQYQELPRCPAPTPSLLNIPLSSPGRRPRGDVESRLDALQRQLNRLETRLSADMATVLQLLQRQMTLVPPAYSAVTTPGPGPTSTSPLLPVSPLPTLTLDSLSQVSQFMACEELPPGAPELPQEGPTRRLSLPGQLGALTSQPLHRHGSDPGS

| Compound | hERG current change (%, negative = inhibition) at 1uM |
| --- | --- |
| CCOc1ccc(NC(=O)CCC(=O)NNC(=O)c2ccccc2Cl)cc1 | 9.97% |
| Cc1ccc(C(C)C)c(O)c1 | 17.6% |
| COc1cccc(CN2c3ccc(Br)cc3C(=O)CS2(=O)=O)c1 | 9.69% |
| CCOC(=O)c1[nH]c2ccccc2c1NC(=O)CCN1CC(C)OC(C)C1 (centres unmarked) | 8.6% |
| CC(=O)Nc1ccc(-c2cn3cc(C)ccc3n2)cc1 | 6.73% |
| CSCCC(NC(=O)c1ccccc1)C(=O)N(C)CC(=O)Nc1ccc(N2CCOCC2)cc1 (centres unmarked) | 7.93% |
| CCOC(=O)C1(CCCc2ccccc2)CCN(S(=O)(=O)N(C)C)CC1 | 6.81% |
| CCOC(=O)CS(=O)(=O)c1ccc(C(F)(F)F)cn1 | -3.12% |
| Cc1ccc(/C=C/S(=O)(=O)Nc2ccc(C)cc2)cc1 | -11.4% |
| Cc1cccc(Cn2c(NCC(C)O)nc3c2c(=O)n(C)c(=O)n3C)c1 (centres unmarked) | 11.8% |
| O=C1c2ccccc2NC(c2ccc(O)c(O)c2)N1c1ccccc1Cl (centres unmarked) | 14.8% |
| COc1ccccc1-c1c(C)nn2c(N3CCN(Cc4ccccc4)CC3)cc(C)nc12 | 6.35% |
| Cc1cccc2cc(COC(=O)c3cccs3)c(=O)[nH]c12 | 3.69% |
| c1cc(-c2nnc3sc(C4CCCCC4)nn23)ccn1 | -16.1% |
| CCOC(=O)c1oc2ccccc2c1COC(=O)C(C)NC(=O)c1ccco1 (centres unmarked) | 7.97% |
| Cc1ccsc1CNC(=O)c1c(-c2ccccc2)noc1C | 20.3% |
| Cc1cc(C)n(CC(=O)N/N=C/c2ccc3c(c2)OCO3)n1 | 16.7% |
| O=C1CC(N2CCN(c3ccc(Cl)c(Cl)c3)CC2)C(=O)N1 (centres unmarked) | 2.61% |
| Cc1sc(NC(=O)c2ccco2)c(C(c2ccncc2)N2CCOCC2)c1C (centres unmarked) | -4.44% |
| CC(C)NC(=O)CSc1nc(N)c(NC(=O)c2ccco2)c(=O)[nH]1 | 10.2% |

| Compound | hERG current change (%, negative = inhibition) at 1uM |
| --- | --- |
| Cc1ccccc1S(=O)(=O)Cc1ccc(C(=O)NCc2ccccc2)o1 | -0.459% |
| COc1ccc(CNC(=O)C2(C)Cc3ccccc3C(=O)O2)cc1 (centres unmarked) | 22.5% |
| CC1Cc2ccccc2N1S(=O)(=O)c1cccc(C(=O)OCC(=O)NCc2ccco2)c1 (centres unmarked) | 9.96% |
| Cc1ccc(N2C(=O)C3NN=C(C(=O)OCc4ccccc4)C3C2=O)cc1 (centres unmarked) | 5.92% |
| O=C(C1=C(O)C(=O)N(c2ncccn2)C1c1ccc(F)cc1)c1ccco1 (centres unmarked) | 15.3% |
| Cc1csc(NC(=O)CSc2nnc(NC(=O)C3CC(=O)N(c4ccccc4)C3)s2)n1 (centres unmarked) | 2.79% |
| Cc1ccc(S(=O)(=O)c2ccc(NC(=O)c3c(F)cccc3F)cc2)cc1 | 18.1% |
| CCN(C(=O)CCc1ccccc1)C1CCCCC1 | 17% |
| COc1ccc(CCNC(=O)CCCCC(=O)NCCc2ccc(OC)cc2)cc1 | 11.5% |
| COc1ccccc1Nc1nc(NCC(C)C)nc(N)c1[N+](=O)[O-] | 16.2% |
| CCn1c(COC(=O)CNC(=O)c2ccccc2)nc2cc(S(=O)(=O)N(C)C)ccc21 | 10.2% |
| COc1ccc(-c2n[nH]c(=S)n2CC(C)C)cc1 | 6.26% |
| Nn1c(Nc2ccccc2)nc2ccccc21 | 7.31% |
| CCCCOC(=O)Nc1nc2ccc(OC)cc2s1 | 12.6% |
| CCOP(=S)(OCC)SCOC(=O)NCC(=O)OC | 12.7% |
| CC(C)Nc1nnc(SCC(=O)Nc2sccc2C#N)s1 | 5.02% |
| Cc1ccc(Nc2nc3nonc3[nH]c2=O)cc1C | 7.21% |
| COc1ccc(C(=O)n2c(N)nc3ccccc32)cc1OC.Cl | 21.9% |
| CN(C)S(=O)(=O)c1ccc(C(=O)NCCc2ccco2)cc1 | 11% |
| COc1ccc(OC)c(S(=O)(=O)N2CCC(C(=O)Nc3cc(C)ccc3C)CC2)c1 | 8.13% |

| Compound | hERG current change (%, negative = inhibition) at 1uM |
| --- | --- |
| CC(=O)Nc1ccc(-c2sc(Nc3cccc4ccccc34)n[n+]2-c2ccccc2)cc1.[Cl-] | 10.1% |
| O=c1[nH]c(=O)n(C2CCCCC2)c(O)c1C1NCCc2ccccc21 (centres unmarked) | 16.8% |
| Cc1ccccc1-c1nc(CS(=O)(=O)CC(=O)NCc2ccco2)c(C)o1 | -9.71% |
| O=C(NCCOc1ccccc1)c1ccccc1Cl | 0.854% |
| O=C(NCCOC(=O)c1cccs1)c1cccnc1 | 8.72% |
| CC(C)(CNC(=O)Cc1ccc(Cl)cc1Cl)N1CCCCC1 | 17.9% |
| FC(F)(F)c1ccccc1NC(=S)N1CCN(Cc2ccc3c(c2)OCO3)CC1 | 6.32% |
| O=C(NCCc1ccc(Cl)cc1)Nc1cccc(Cl)c1 | 9.78% |
| CN1CCN(c2ccc(C(=O)c3ccc(Br)cc3)cc2[N+](=O)[O-])CC1 | -19.3% |
| O=C(c1cc2cc(Br)ccc2[nH]1)N1CCC2(CC1)OCCO2 | 11.7% |
| COc1cccc(-c2nnc(NC(=O)c3ccccc3Br)o2)c1 | 2.44% |
| COCCn1c(=O)[nH]c2cc(C(=O)NCCc3ccc(OC)c(OC)c3)ccc2c1=O | 11.3% |
| CC(=O)Nc1ccccc1C(=O)C(=O)Nc1cccc(F)c1 | 3.64% |
| Cc1nc(Nc2ccc(Cl)c(Cl)c2)sc1C(=O)Nc1ccccc1 | 4.02% |
| CC(c1ccco1)N(Cc1ccco1)C(=O)Nc1ccccc1 (centres unmarked) | 17.9% |
| Clc1ccc(-c2noc(CSc3nnc(-c4ccncc4)n3-c3ccccc3)n2)cc1 | -4.52% |
| CCC1CCCCN1CC(O)COCc1cccc(OC)c1 (centres unmarked) | 11.4% |
| O=C(COC(=O)COc1cccc(Br)c1)Nc1c(Cl)cccc1Cl | 2.4% |
| CN(C)c1ccc(C(CNS(=O)(=O)c2ccc(F)c(F)c2)c2c[nH]c3ccccc23)cc1 (centres unmarked) | 8.31% |
